Test results taken from the RNAGym collection of RNA variant scans (doi:10.1073/pnas.2313332121).
Variants at the floor of the assay are shown more often than the library holds them.

B1: TPR 5TU (parent)
chain: GGAUCUUCUCGAUCUAACAAAAAAGACAAAUCUGCCACAAAGCUUGAGAGCAUCUUCGGAUGCAGAGGCGGCAGCCUUCGGUGGCGCGAUAGCGCCAACGUUCUCAACUAUGACACGCAAAACGCGUGCUCCGUUGAAUGGAGUUUAUCAUG

Variants of: B1
Test: polymerase ribozyme fitness, log enrichment relative to wild type (log ratio); higher = more active; in vitro selection for triplet polymerase activity
Summary of the method: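 A single round of triplicate in vitro selection, including frozen incubation at −7 °C, was applied to PCR-built, transcribed mutant libraries of each subunit of a heterodimeric triplet polymerase ribozyme. Illumina sequencing of input and output libraries retained genotypes with ≥10 input reads and ≥1 read per output. Fitness is the base-2 logarithm of genotype enrichment divided by wild-type enrichment, from inverse-variance-weighted replicate averages.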

Variant | polymerase ribozyme fitness (log ratio)
C5A A30U G84C C85G A137C A147G | ≤ -4.2
C5A A37C A47C C79U C85U G126C U135A A138G | ≤ -4.2
C5A A37U | -0.964
C5A A37U C75A C87G | ≤ -4.2
C5A A40G U45A U56G C63A A64U A91G | ≤ -4.2
C5A A41C C54U C85A C103A G117A G133C A137U | ≤ -4.2
C5A A47C A49C G83C A120G | ≤ -4.2
C5A A49G C96A C103A A142C G152U | ≤ -4.2
C5A A49G U61A G62C A91G | ≤ -4.2
C5A A52U C54A U55A C76U C87G | ≤ -4.2
C5A A60G G94C G141C A142C | ≤ -4.2
C5A A64U | ≤ -4.2
C5A A66G G83A C87U A113G G124A U127C | ≤ -4.2
C5A A89G C95G C132U | -3.03
C5A A91G G92U C96U A121U U134C | ≤ -4.2
C5A A91U A138C U144G C149G | ≤ -4.2
C5A A113U | -2.74
C5A A137G U144A A150U | ≤ -4.2
C5A C8A A60C C76A C85A | ≤ -4.2
C5A C8A G62A G68C C87A | ≤ -4.2
C5A C8G C14U C96G C131G | ≤ -4.2

Variant | polymerase ribozyme fitness (log ratio)
C5A C8G G50C A52G G62A G74U G86C C116U | ≤ -4.2
C5A C8U C54G U56A C95A U101G C114U C132G | ≤ -4.2
C5A C8U U15C A22U A23U U53G G58C A107G | ≤ -4.2
C5A C10G A29U C57G G59C G84C | ≤ -4.2
C5A C10U G48C C75U U77C C93G A122U A150C | ≤ -4.2
C5A C10U U13A A17G A40U C76A | ≤ -4.2
C5A C14G A37U A52C C85G C99U G140U | ≤ -4.2
C5A C14G G94C G143A | -4.07
C5A C18G A40U | -0.118
C5A C18U G86U | -1.4
C5A C27G C54U A73G G83A G88C | ≤ -4.2
C5A C27U C75A A142G U146G | ≤ -4.2
C5A C27U G50C C54U C95U A110C C129U | ≤ -4.2
C5A C27U G62C A89G G92C G128C | ≤ -4.2
C5A C32A U56A C85U A113C | ≤ -4.2
C5A C36A U45G U55A U61A G62U A66U C108G C149U A150G | ≤ -4.2
C5A C51U A52G G70A | ≤ -4.2
C5A C57U G81C G94C C108A G143C | ≤ -4.2
C5A C69A C93A U102C | ≤ -4.2
C5A C72U C85U C95U | -0.0103
C5A C76U G84U C125U G141U | -3.64

Variant | polymerase ribozyme fitness (log ratio)
C5A C87A | ≤ -4.2
C5A C87U | -0.502
C5A C87U C129G A142U | ≤ -4.2
C5A C93G | -2.32
C5A C93G C95U C103G G143C U144G | ≤ -4.2
C5A C93U C105U C149G | -3.96
C5A C93U C108A C125A | ≤ -4.2
C5A C96U | 0.321
C5A G11C C32G G92U C99A C125G G136U G141U | ≤ -4.2
C5A G11U A21C A22U A23G A49U U53G A73G C85U C93A C105G A106U A110U G136A | ≤ -4.2
C5A G34A G67A G71A C95G C149A | ≤ -4.2
C5A G34U G58C C63U C99G C131A | ≤ -4.2
C5A G46C U77G A142C | ≤ -4.2
C5A G48A C63A C87G C105A A113G C125U C129G A150U | ≤ -4.2
C5A G58A C69U G81C A89U G92A U151A | ≤ -4.2
C5A G59C C96A A98U | -0.127
C5A G62C G67C G94A A106U | ≤ -4.2
C5A G65A C76A G83C C103A | ≤ -4.2
C5A G68U C96G A97G | ≤ -4.2
C5A G71U G80A G84A G100U U104C G143U A150G | ≤ -4.2
C5A G83U C93U A113C A122C | ≤ -4.2

Variant | polymerase ribozyme fitness (log ratio)
C5A G84A A89C G128A U144C | ≤ -4.2
C5A G86U A107G G152A | ≤ -4.2
C5A G94U C95A C123A U135C | -3.89
C5A G136A | 0.816
C5A U6G A23C G50A U53G U55A A64G C87A A89U A115C C123U | ≤ -4.2
C5A U6G A40G C54A G94C A115U G140U | ≤ -4.2
C5A U6G G46A U56A U82C C93A A107G C125U G136U | ≤ -4.2
C5A U7C A23U A40C U55G C87U C108G | ≤ -4.2
C5A U7C G92C U139G | -1.27
C5A U9C C85A | -2.68
C5A U9G C63U A64G G83C | ≤ -4.2
C5A U9G C93G C103A C108G A113G A137G | ≤ -4.2
C5A U13A A24G U82C G100C | ≤ -4.2
C5A U13C G25U A47G C76G A107U C125G | ≤ -4.2
C5A U13G G81U G92C U145G | -2.12
C5A U13G U53A C93G | ≤ -4.2
C5A U44A A73U C79U C85U G126U | ≤ -4.2
C5A U45G C85U A115U G141U | -3.86
C5A U55A G68U C87U G100U U101G | ≤ -4.2
C5A U55G G68C | ≤ -4.2
C5A U56A G58A C72U C87U U109G G136A U144C | -3.93
